# According to the supplement of paper PMC3334620:
# The full ranking holds about 33,000 sequences; the median of “E-score (-0.5 to 0.5)” is about -0.036, and the highest 2% start at about 0.37. Some of the results follow.
# Target: T1, Yer064c (UniProt P40041)
# T1 sequence: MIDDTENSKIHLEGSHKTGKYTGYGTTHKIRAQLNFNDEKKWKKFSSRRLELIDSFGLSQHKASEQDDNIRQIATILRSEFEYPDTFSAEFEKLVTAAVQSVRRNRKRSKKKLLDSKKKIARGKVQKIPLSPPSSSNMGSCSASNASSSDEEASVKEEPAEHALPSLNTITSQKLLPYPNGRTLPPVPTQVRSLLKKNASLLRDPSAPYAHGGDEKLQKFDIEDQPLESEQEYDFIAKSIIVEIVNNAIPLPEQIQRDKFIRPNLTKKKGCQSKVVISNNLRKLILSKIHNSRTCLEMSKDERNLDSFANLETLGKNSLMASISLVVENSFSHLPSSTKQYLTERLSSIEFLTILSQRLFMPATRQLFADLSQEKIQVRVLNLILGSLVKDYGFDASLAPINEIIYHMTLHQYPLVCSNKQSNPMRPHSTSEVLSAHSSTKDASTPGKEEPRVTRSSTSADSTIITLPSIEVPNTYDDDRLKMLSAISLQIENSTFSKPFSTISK
# Assay: PBM E-score (8-mer binding enrichment) (E-score (-0.5 to 0.5)); higher = stronger / more preferred TF binding; most listed sequences are background and not binding sites
# Settings: protein concentration: 200 nM; construct: GST-full length
# Procedure, shortened: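 Bound GST-tagged yeast transcription factors, applied at about 100-200 nM to double-stranded universal all-10-mer Agilent arrays, were detected with fluorescent anti-GST. Scans were normalised with masliner. A modified Wilcoxon-Mann-Whitney statistic, the E-score, was assigned to each ungapped eight-base word pooled with its reverse complement by the Universal PBM Analysis Suite.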
row,Sequence,PBM E-score
1,ATACAGTG,-0.0455
2,ACTTGGTA,0.0514
3,AGTTATTC,0.00866
4,AAGCCTTA,-0.0159
5,GTCGTGCA,0.0025
6,AAAGACTG,0.157
7,CCATACGC,-0.0241
8,AGTGGTTA,0.0866
9,AGGGTAGG,0.0272
10,GAACTGGC,-0.298
11,ACTACGCG,0.175
12,AGAAGAGC,-0.288
13,CCGAATCG,-0.135
14,AGACCACA,0.0805
15,AAACGTCG,-0.226
16,AATTATGT,0.101
17,AGAGACGA,0.0605
18,CCGTGAGC,-0.158
19,ACCGTTCC,-0.114
20,CACCAGTA,-0.0101
21,GCAGTGGC,-0.154
22,ATAGGGGC,-0.262
23,CAGTATGG,0.0644
24,TCAACCGA,0.153
25,CATTACAA,0.0194

row,Sequence,PBM E-score
1,AAACTGGA,-0.113
2,AAACATAT,0.142
3,CGATCGTC,0.00604
4,CCACAGTC,0.223
5,CAGCGTAA,-0.0143
6,AAGTGCCA,-0.278
7,CGAAAAAC,-0.027
8,GGATGCAA,-0.109
9,GTTGTGGA,0.0795
10,CCCGTCCC,-0.12
11,CAAGGCTC,-0.248
12,CGAGCATA,-0.254
13,GTAACTGA,0.0894
14,AGGTAGGA,-0.0376
15,GACCTAAA,0.0605
16,GAAAGCAA,-0.0727
17,ACACGATA,-0.0453
18,TGGTCCAA,-0.244
19,CTAGGGAG,-0.165
20,CCGTAAGA,0.0154
21,CTAGAACA,0.0923
22,ACCTTAGC,0.03
23,GGGCCCCC,-0.332
24,AACCCCGA,-0.149
25,TGAGCGAA,0.093

row,Sequence,PBM E-score
1,AGGGTCAT,-0.0445
2,AGCGTACG,-0.127
3,GTGTAGTA,0.0702
4,CTGGCTGA,0.124
5,AACGTCGT,-0.0362
6,AGTCGCAA,0.355
7,ATTAATAG,0.152
8,AAGGCCCT,-0.0941
9,CCCACCAA,-0.102
10,CTCAAAGC,0.137
11,AGTTGGAA,-0.00887
12,AATCGGTA,-0.0571
13,GAATGTGA,0.164
14,CATTCGCA,-0.139
15,TCACCTAA,0.181
16,GAGAGCTC,-0.213
17,AATCGCGT,0.203
18,CTCCACTA,0.0692
19,AGATCCAG,-0.277
20,ATCAGTTC,0.198
21,TATATGCA,-0.0473
22,CGCCAGCA,-0.27
23,GTAGTAGA,-0.0115
24,CAACAACA,0.104
25,GCTGGCGA,-0.156

row,Sequence,PBM E-score
1,CAGTGGAC,0.0837
2,ATGCCTCA,-0.178
3,CGGAGCAG,-0.0633
4,TAGTCGAA,0.243
5,AGTACGAA,0.149
6,CTACATAC,0.0297
7,CGGCGAGA,0.0493
8,ATGCCACC,0.0347
9,ATTATAGC,-0.0818
10,AATGCCAG,-0.197
11,CCTGCATC,-0.0758
12,ACGATACT,-0.155
13,ATGCGTAG,-0.0678
14,GTCGTTCA,0.141
15,CTACGGCA,-0.128
16,GATTTAAC,0.198
17,CCGGCCAA,-0.106
18,CTGTGTTA,0.127
19,GGTTTCTA,-0.133
20,ATTATCCA,0.0794
21,TCTCATCA,0.115
22,CTGTAGGC,-0.143
23,GGCTCTGA,0.0959
24,GTGGGGCA,-0.136
25,ATCACTTA,0.24

row,Sequence,PBM E-score
1,ATTAATCG,0.269
2,CTACACTA,0.143
3,GGTGTAAA,-0.207
4,CACGTTAC,0.106
5,CTTACTTA,0.0914
6,AACCAACC,-0.128
7,ACAGGTCG,-0.251
8,ATAGTTAC,0.101
9,AATTGTGG,0.0285
10,CGCGAGCG,-0.174
11,ATGAGAAT,0.0479
12,ATATACCC,-0.0523
13,AGGTCTGG,-0.193
14,AAGACACT,0.0108
15,AGTTCTTA,0.106
16,CTATACAG,-0.0184
17,CGCACGAG,-0.127
18,CACTGCTC,0.00201
19,CGGTGCGC,-0.165
20,GGTTATAC,-0.022
21,CACGTCTA,0.0964
22,AATCTTTC,0.238
23,AATCCGTA,-0.11
24,GCACCCTA,-0.325
25,AATCACTG,0.375

row,Sequence,PBM E-score
1,GTATGAAC,-0.0715
2,ATACACTG,0.0148
3,ACACTCGG,-0.00987
4,GCTGGGAC,-0.1
5,GACATACC,-0.168
6,AGAAAGCT,-0.0789
7,CTGGATGA,0.24
8,GGGACTGA,0.119
9,CCGCTAGA,-0.215
10,AGAAGGTG,-0.0166
11,AGTAGGAG,-0.0694
12,GGGGTAAA,-0.17
13,AACAGTCC,0.188
14,AGATCGCA,-0.14
15,ACGGACCT,-0.222
16,GGCGGGCA,-0.297
17,AGGAAGCG,-0.186
18,ACGCCCAG,-0.157
19,CCGCACCC,-0.295
20,CGCCGACC,-0.0763
21,AGGCATCA,-0.113
22,CGAAGAGA,0.0763
23,TCAGATAA,0.168
24,CTGGGTAC,-0.0609
25,AGTGGAAC,-0.205

row,Sequence,PBM E-score
1,ACGGTAGG,-0.117
2,AGGTCACT,0.0701
3,AGCGAACC,0.0203
4,TAAACCTA,0.0281
5,TCCGTAGA,-0.143
6,CAGGCTTA,-0.107
7,AAACCGTA,-0.165
8,AATCATCC,0.468
9,ATTCGCTA,-0.0382
10,CATACGGC,0.135
11,GATATAGA,-0.0585
12,AGGGCGCC,-0.28
13,CTCATCAA,0.271
14,ATGATCTA,0.161
15,CGATAGCA,-0.127
16,CGACCCCA,-0.132
17,CTCAACCA,0.152
18,ACGGTTGG,-0.239
19,CACGCACC,-0.193
20,ACTAGGCT,0.172
21,ACCAGTAC,-0.0494
22,AGGCTAGA,-0.0309
